# PubChem BioAssay AID651820 (National Center for Advancing Translational Sciences (NCATS), 2012)
# The campaign covered roughly 340,000 compounds. About 12,000 (3.5%) were called active. The shares of active, inactive and inconclusive entries below differ from those in the screen. Calls come from the whole dose curve; as a rule, active = well fitted inhibition curve with a large enough effect; inconclusive = small, poorly fitted or top-dose-only effect, or another doubt; inactive = no such curve, though single readings can be large or run the other way. Potencies of inconclusive entries are left out as doubtful fits.
# Assay: qHTS Assay for Inhibitors of Hepatitis C Virus (HCV)
# Conditions: Huh7.5.1 HCVcc-Cre (HCVcc is cell-culture hepatitis C virus) infection, luciferase reporter, 44 h; activity change, negative = inhibition: at 41.8 µM (top of the series) unless noted
# In short: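 Antiviral activity was scored by luciferase reporter output from cells infected with HCVcc-Cre (~0.5 moi) in presence of compound, 44 h infection period, cells seeded 1,000/well 4 h prior.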
# % is set by controls: 0 for no effect and ±100 for the full control effect; potency is the fitted concentration of half-maximal effect; tags give direction and shape of the fitted curve.
Compound,Potency,"activity change, negative = inhibition"
C=CCSc1nc(N)c(C(=O)Nc2ccccc2)cc1C#N,active: 3.55 µM,–
Cc1ccc(S(=O)(=O)NC2c3cccc4cccc(c34)C2Sc2nc(C)cc(C)n2)cc1 (configuration not stated),"inconclusive [inhibitor, single point]",–
Cc1cc(C(=O)Nc2nc3c(s2)CCCC3)cs1,active: 12.6 µM,–
COc1ccc2cc(C(=O)/C=C/c3cc(OC)c(OC)c(OC)c3)ccc2c1,"inconclusive [inhibitor, full curve]",–
Cc1cc(C)n2c(SCc3ccc(Br)cc3)nnc2n1,"inconclusive [inhibitor, single point]",–
CCOC(=O)c1c(C)n(-c2ccc(C)cc2)c2c(C(C(C)=O)C(=O)O)c(Br)c(O)c(O)c12 (configuration not stated),active: 11.2 µM,–
COc1c(Cl)cccc1-c1cn2ccc(C)cc2n1,"inconclusive [inhibitor, partial curve]",–
Cc1cc(Cl)ccc1Nc1ncccc1C(N)=O,"inconclusive [inhibitor, single point]",–
Cc1ccc(OC(C)C(=O)Nc2ccncc2)cc1 (configuration not stated),"inconclusive [inhibitor, single point]",–
Clc1cccc2sc(N3CCCC3)nc12,"inconclusive [inhibitor, partial curve]",–
O=C(NCCCl)c1ccc(OCc2ccccc2)cc1Cl,–,inactive: 9.89%
CC(NC(=S)Nc1ccccc1C(F)(F)F)C1CC2CCC1C2 (configuration not stated),"inconclusive [inhibitor, single point]",–
Cc1cc(C)nc(/N=C(\N)Nc2ccc(-c3ccccc3)cc2)n1,active: 11.2 µM,–
COC(=O)CNc1c(-c2ccccc2)nc2ccc(Br)cn12,–,inactive: -2.44%
COC(=O)c1ccc(C(=O)OC)c(NC(=S)N2CCCC(CO)C2)c1 (configuration not stated),–,inactive: -3.63%
CC(C)(C)c1ccc(C(=O)OCCNC(=O)c2c(Cl)nc3ccccn23)cc1,"inconclusive [inhibitor, single point]",–
CN(CCc1nc2ccccc2[nH]1)Cc1nc(CC2CC2)no1,–,inactive: 17.3%
O=C(CCl)Nc1cccc(S(=O)(=O)N2CCCCCC2)c1,"inconclusive [inhibitor, partial curve]",–
Oc1nc(Nc2ccc(F)cc2)sc1/C=C1\C=Nc2ccccc21,"inconclusive [inhibitor, partial curve]",–
CC(C)(C)c1cc(N)n2nc(C(C)(C)C)cc2n1,"inconclusive [inhibitor, single point]",–
CCCCn1c(-c2ccccc2C)nc2cc3[nH]c(=O)c(C(C)C)nc3cc21,–,inactive: -18.8%
N#Cc1c(-c2ccccc2)c(-c2ccccc2)nn(CC(=O)NNC(=O)Nc2ccc(Cl)c(Cl)c2)c1=O,"inconclusive [inhibitor, partial curve]",–
CC(=O)C(=Cc1ccc(O)cc1)C(C)=O,–,inactive: -10.7%
CN(/N=C/c1cc([N+](=O)[O-])ccc1O)c1ccccc1,"inconclusive [inhibitor, full curve]",–

Compound,Potency,"activity change, negative = inhibition"
CCCn1c(NCc2cc(C)ccc2O)nc2ccccc21,"inconclusive [inhibitor, partial curve]",–
CN(C(=O)c1cccc(NC(=O)c2ccccc2)c1)C1CCCCC1,–,inactive: -9.25%
COc1ccc(OCC#CCN2CCC(C)CC2)cc1,–,inactive: 1.48%
CCCNC(=O)c1ccc(N2CCC3(CC2)CC(c2cccc(Br)c2)=NO3)c(NC(=O)c2ccc(Br)cc2)c1,–,inactive: 21.9%
O=C(Nc1cccc(S(=O)(=O)N2CCCC2)c1)c1ccc2ccccc2n1,"inconclusive [inhibitor, partial curve]",–
COC(=O)c1sc(N)c(C(=O)OC)c1COC(=O)CNS(=O)(=O)c1cccc(C#N)c1,"inconclusive [inhibitor, partial curve]",–
NC(Cc1cc(O)c(O)cc1O)C(=O)O (configuration not stated),–,inactive: 2.8%
COc1ccc(Cl)cc1NC(=O)CC1CCCC1,"inconclusive [inhibitor, single point]",–
Cc1ccc(OCCSc2nc(NC(C)C)nc(NC(C)C)n2)cc1,"inconclusive [inhibitor, single point]",–
O=c1oc2ccccc2n1CSC1=NCCS1,"inconclusive [inhibitor, single point]",–
Cc1ccc(S(=O)(=O)Cn2nnnc2C(c2ccccc2)N2CCN(c3ccccc3)CC2)cc1 (configuration not stated),–,inactive: -17.9%
CCN(CC)S(=O)(=O)c1ccc(N2CCN(c3ccccc3OC)CC2)c(N)c1,"inconclusive [inhibitor, single point]",–
COc1ccc(NC(=O)CSc2nc(NS(=O)(=O)c3ccc(C)cc3)cc(=O)[nH]2)cc1,"inconclusive [inhibitor, single point]",–
O=C(Nc1ccc(S(=O)(=O)N2CCc3ccccc32)cc1)c1ccc2c(c1)OCO2,"inconclusive [inhibitor, single point]",–
O=C(NCCNCC(O)COc1ccc(O)cc1)N1CCOCC1 (configuration not stated),active: 0.316 µM,–
CC(=O)c1ccc(OCCCC(=O)Nc2cccc(S(=O)(=O)N(C)C)c2)cc1,"inconclusive [inhibitor, single point]",–
CC1CCc2sc(C(=O)Nc3ccc(C(N)=O)cc3)cc2C1 (configuration not stated),"inconclusive [inhibitor, partial curve]",–
CCN(CC)C(=O)c1ccc(-c2nnc(Nc3ccc(C(=O)NC)cc3)c3ccccc23)cc1,–,inactive: -21.7%
Cc1cc(CN(C)C(=O)c2ccc3nc(Cc4ccccc4F)oc3c2)on1,"inconclusive [inhibitor, single point]",–
CS(=O)(=O)N1CCc2cc(C(=O)Nc3ccc(Cl)cc3)ccc21,"inconclusive [inhibitor, partial curve]",–
CCOc1cc(NC(=O)C2CCCCC2)c(OCC)cc1NC(=O)c1ccccn1,"inconclusive [inhibitor, partial curve, poor fit]",–
COc1ccc(OC)c(S(=O)(=O)NCC(=O)NC2CCCc3ccccc32)c1 (configuration not stated),"inconclusive [inhibitor, partial curve]",–
C/C(=N\NC(=O)c1ccc(Cn2cc([N+](=O)[O-])cn2)o1)c1cccc(NC(=O)c2cccnc2)c1,–,inactive: 22.7%
CCC(C)NC(=O)CSc1nc2n[nH]c(C)c2c(=N)n1-c1ccc(OC)cc1 (configuration not stated),–,inactive: -28%

Compound,Potency,"activity change, negative = inhibition"
CC12CCC(=O)N1C(C(=O)Nc1cc(C(F)(F)F)ccc1N1CCOCC1)CS2 (configuration not stated),active: 8.91 µM,–
COc1cccc(CNCC(O)COc2ccc(C(=O)c3ccccc3)cc2)c1 (configuration not stated),"inconclusive [inhibitor, single point]",–
Cc1ccc(/C=N/c2sc3c(c2C#N)CCCCC3)o1,–,inactive: -21.8%
COc1ccc(N(CC(=O)NCCC2=CCCCC2)S(C)(=O)=O)cc1OC,"inconclusive [inhibitor, single point]",–
O=C(C1CC(=O)N(c2ccc3c(c2)OCCO3)C1)N1CCN(c2cccc(C(F)(F)F)c2)CC1 (configuration not stated),"inconclusive [inhibitor, single point]",–
CCC(C)N1C(=O)S/C(=C/c2ccc(Sc3nc4ccccc4[nH]3)o2)C1=O (configuration not stated),"inconclusive [inhibitor, partial curve, poor fit]",–
Cc1ccc(C)c(OCCCCn2ccnc2)c1,"inconclusive [inhibitor, partial curve]",–
CN(C(=O)c1cccc(NC(=O)C2CCN(C(=O)OC(C)(C)C)CC2)c1)C1CCCCC1,active: 10 µM,–
CCCCn1c(-c2csc3c2CCC(C)C3)n[nH]c1=S (configuration not stated),"inconclusive [inhibitor, partial curve]",–
CC(=NNC(=S)N1CCCCCC1)c1cccc2cccnc12,"inconclusive [inhibitor, partial curve]",–
COc1ccc(S(=O)(=O)Nc2ccc3c(c2)C(=O)N([C@H](C)CO)C[C@H](C)[C@@H](CN(C)S(=O)(=O)c2c(C)noc2C)O3)cc1,"inconclusive [inhibitor, single point]",–
C=CCOc1ccc(C(c2c(C)n(C)n(-c3ccccc3)c2=O)c2c(C)n(C)n(-c3ccccc3)c2=O)cc1,–,inactive: -8.84%
CC(C)(C)n1cc(C(=O)c2ccccc2)cc1-c1ccccc1,"inconclusive [inhibitor, single point]",–
CCOc1nc(-c2ccccc2)ccc1-c1noc(-c2ccco2)n1,active: 10 µM,–
CC1CCC2(CC1)NC(=O)N(CC(=O)N1CCN(S(=O)(=O)c3ccccc3)CC1)C2=O (configuration not stated),–,inactive: 15%
O=C(COc1ccccc1Cl)Nc1ccc(NC(=O)c2ccco2)cc1,–,inactive: -14.7%
Cc1c2c(cc3c1[nH]c1ccccc13)C=NCC2,active: 10 µM,–
O=C(CCC(=O)N1CCOc2ccc(Cl)cc21)NCCCN1CCN(c2ccccc2F)CC1,"inconclusive [inhibitor, partial curve]",–
CCOC(=O)C(=CNc1ccccc1N1CCOCC1)C(=O)OCC,"inconclusive [inhibitor, single point]",–
COc1ccc(NC(=O)CSc2nc3ccccc3n2-c2ccccc2)c([N+](=O)[O-])c1,"inconclusive [inhibitor, partial curve]",–
Cc1ccc(C2CC(c3ccccc3Cl)n3nc(N)nc3N2)cc1 (configuration not stated),–,inactive: 10.3%
O=C(COc1ccccc1)NC(=S)Nc1cccc([N+](=O)[O-])c1,–,inactive: -4.24%
CCc1ccccc1N(C(=O)c1snc(C(N)=O)c1N)C(C(=O)NCC1CCCO1)c1ccc(C)o1 (configuration not stated),"inconclusive [inhibitor, full curve, poor fit]",–
CC(=O)Nc1cc(OC(C)=O)c2nonc2c1OC(C)=O,"inconclusive [inhibitor, single point]",–
